PubChem BioAssay AID624417 (National Center for Advancing Translational Sciences (NCATS), 2012)
Screen size: about 410,000 compounds; about 6,400 (1.6%) were called active. The shares of active, inactive and inconclusive entries below differ from those in the screen. The call rests on the fitted dose curve; in most records, active means well fitted inhibition curve with a large enough effect; inconclusive means small, poorly fitted or top-dose-only effect; inactive means no such curve, though single readings can be large or run the other way. No potency is given beside an inconclusive call; the fits are too rough.

biological target: Glucagon-like peptide 1 receptor (Homo sapiens) (UniProt P43220); test: qHTS of GLP-1 Receptor Inverse Agonists (Inhibition Mode); conditions: HEK293 GLP-1R CRE-luciferase, luminescence, 24 h, GLP-1R form is constitutively active; activity change, negative = inhibition: at 38.3 µM (top of the series) unless noted; further: nearly all actives have a fitted effect of over 55% in size
Method in brief: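 Inverse agonism was detected as reduced cAMP-driven luciferase luminescence after 24 h compound treatment. The cells were HEK293 clones expressing constitutively active human GLP-1R with the reporter. Reporter-only and GPR119 cell lines served as counterscreen controls.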
On the % scale 0 is the no-effect control and ±100 the full control effect; potency means the concentration at half of the fitted maximal effect; tags describe the fitted curve by direction and shape.

Sequence of UniProt P43220 (P43220 whole entry, looked up): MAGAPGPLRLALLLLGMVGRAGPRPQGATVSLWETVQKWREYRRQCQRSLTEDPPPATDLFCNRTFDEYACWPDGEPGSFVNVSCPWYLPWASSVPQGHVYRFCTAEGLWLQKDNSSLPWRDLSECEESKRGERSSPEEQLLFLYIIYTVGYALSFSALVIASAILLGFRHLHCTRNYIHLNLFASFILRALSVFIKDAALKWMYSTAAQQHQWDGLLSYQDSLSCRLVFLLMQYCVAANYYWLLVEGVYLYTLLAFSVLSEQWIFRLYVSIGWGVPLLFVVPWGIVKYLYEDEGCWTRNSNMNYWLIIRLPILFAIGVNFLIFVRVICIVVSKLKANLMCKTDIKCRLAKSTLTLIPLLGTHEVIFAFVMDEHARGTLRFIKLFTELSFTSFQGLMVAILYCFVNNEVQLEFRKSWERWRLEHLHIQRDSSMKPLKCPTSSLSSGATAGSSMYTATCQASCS

Row | SMILES | Potency | activity change, negative = inhibition
1 | O=C(Nc1cccc(S(=O)(=O)N2CCCCCC2)c1)C1CCN(C(=O)c2ccc(Cl)cc2)CC1 | active: 8.91 µM | 
2 | COCc1cc(C)nc(OCC(=O)N/N=C\c2cc(C)n(-c3cccc(C(F)(F)F)c3)c2C)c1C#N | inconclusive [inhibitor, partial curve, poor fit] | 
3 | O=C(NCc1cccnc1)c1cc(C2CCCN(C(=O)CCCc3ccccc3)C2)on1 (configuration not stated) | inconclusive [inhibitor, single point] | 
4 | O=S(=O)(NCC1CCCO1)c1ccc(-c2ccc(Cl)cc2)cc1 (configuration not stated) | inconclusive [inhibitor, full curve] | 
5 | CC(OC(=O)c1ccccc1O)C(=O)Nc1cccc(Cl)c1 (configuration not stated) | inconclusive [inhibitor, partial curve, poor fit] | 
6 | COC(=O)C1(C(=O)OC)C[C@H](c2cccs2)N(Cc2ccccc2OC)[C@@H]1c1ccc(F)cc1 | inconclusive [inhibitor, partial curve, poor fit] | 
7 | CS(=O)(=O)N1CC2CCCN2c2cc(C(F)(F)F)ccc21 (configuration not stated) |  | inactive: 1.95%
8 | COc1ccc(C(=S)N2CCN(c3ccccc3C)CC2)cc1OC | inconclusive [inhibitor, partial curve, poor fit] | 
9 | CC(C)Oc1ccc(S(=O)(=O)N2CCCCC2)cc1NC(=O)C1CCCC1 | inconclusive [inhibitor, single point] | 
10 | CCn1c(=O)cc(OCC(=O)NCCCN2CCN(c3cccc(Cl)c3)CC2)c2ccccc21 | inconclusive [inhibitor, single point] | 
11 | CN(C(=O)CSc1nc2ccc(NC(=O)c3ccco3)cc2s1)c1ccccc1 | inconclusive [inhibitor, single point] | 
12 | COc1ccc(N2CCN(CCC(=O)c3ccc4ccccc4c3)CC2)cc1 |  | inactive: 6.05%
13 | Cc1cc(C)cc(C(O)c2ncc(-c3ccccc3F)[nH]2)c1 (configuration not stated) | inconclusive [inhibitor, single point] | 
14 | CCCCN(CC)Cc1ccc(CNC(=O)Nc2ccc(Cl)cc2)o1 | inconclusive [inhibitor, partial curve, poor fit] | 
15 | CC1C(=O)N(Cc2cn(CC3CCCCC3)nn2)CCS(=O)(=O)N1Cc1ccc(-c2cccc(CO)c2)cc1 (configuration not stated) | inconclusive [inhibitor, single point] | 
16 | O=C1CCCc2ccccc2N1Cc1ccccc1Cl | inconclusive [inhibitor, partial curve, poor fit] | 
17 | CCOC(=O)CCSc1nc(C(C)(C)C)cc(C(F)(F)F)c1C#N | inconclusive [inhibitor, partial curve, poor fit] | 
18 | Cc1cnn(-c2nc(-c3ccccc3)cc(-c3ccccc3)n2)c1 | inconclusive [inhibitor, single point] | 
19 | COc1ccccc1N1CCN(/N=C/c2ccc(Cl)c([N+](=O)[O-])c2)CC1 | inconclusive [inhibitor, single point] | 
20 | O=C(Cn1nc(-c2ccc(Cl)cc2)ccc1=O)NCC1CCCO1 (configuration not stated) |  | inactive: 7.52%
21 | COc1cc(/C=N/O)cc(Br)c1OCc1ccc(Cl)cc1 | inconclusive [inhibitor, partial curve, poor fit] | 

Row | SMILES | Potency | activity change, negative = inhibition
22 | Cc1ccccc1Nc1nc(CSc2nnnn2-c2ccccc2)cs1 | inconclusive [inhibitor, single point] | 
23 | O=C(Nc1ccccc1)OC[C@@H]1C=CS(=O)(=O)N1Cc1ccc(Br)cc1 | inconclusive [inhibitor, single point] | 
24 | COc1ccc(-c2cc3cccc(OC)c3oc2=O)cc1 | inconclusive [inhibitor, single point] | 
25 | CC(C)COc1cccc(C(=O)Nc2cc(S(=O)(=O)N3CCOCC3)ccc2N2CCCC2)c1 | inconclusive [inhibitor, single point] | 
26 | O=C(NCc1ccco1)c1ccccc1-c1ccc(C(F)(F)F)cc1 | inconclusive [inhibitor, single point] | 
27 | O=C(CCNS(=O)(=O)c1ccccc1C(F)(F)F)N1CCN(C(c2ccccc2)c2ccccc2)CC1 | inconclusive [inhibitor, partial curve, poor fit] | 
28 | CC1CCC2C(C1)Nc1c(C(=O)O)cccc1C2(C)C (configuration not stated) | inconclusive [inhibitor, partial curve, poor fit] | 
29 | CC(C)Sc1nnc(Nc2ccccc2)s1 | inconclusive [inhibitor, single point] | 
30 | CC(C)(C)OC(=O)N1CCC(CC2CC(c3cccc(Br)c3)=NO2)(C(=O)NCC2CCCCC2)CC1 (configuration not stated) | inconclusive [inhibitor, single point] | 
31 | CCCNC(=O)C1(C)CCCN(Cc2ccc(-c3ccccc3)cc2)C1 (configuration not stated) | inconclusive [inhibitor, partial curve, poor fit] | 
32 | O=S(=O)(c1ccc(Br)cc1)c1cnc2ccccc2n1 | inconclusive [inhibitor, single point] | 
33 | CCCN1CCN(CCCNC(=O)c2cc3c(=O)[nH]c4ccccc4c3s2)CC1 | inconclusive [inhibitor, single point] | 
34 | CC(C)c1ccc(NC2CCCN(C(=O)c3n[nH]c4c3CCC4)C2)cc1 (configuration not stated) | inconclusive [inhibitor, full curve, poor fit] | 
35 | Cc1cc(C)cc(OCC(=O)N(C)CC(=O)Nc2ccc(Cl)c(C(F)(F)F)c2)c1 | inconclusive [inhibitor, single point] | 
36 | Cc1cccc(OCC(=O)NNC(=O)Nc2cccc(Cl)c2)c1C | inconclusive [inhibitor, full curve] | 
37 | Nc1c(C(=O)N2CCOCC2)sc2nc3c(cc12)CCCC3 | inconclusive [inhibitor, partial curve] | 
38 | COc1ccc(CN2C(=O)C(C)Nc3ncnc(N4CCN(c5ccccn5)CC4)c32)cc1 (configuration not stated) | inconclusive [inhibitor, single point] | 
39 | O=C(COc1ccccc1)NC1CCCCCCC1 | active: 11.2 µM | 
40 | O=c1c2ccccc2oc2ccc(NCCCn3ccnc3)cc12 |  | inactive: -26.5%
41 | NS(=O)(=O)c1ccc(CCNC/C=C/c2ccccc2)cc1 |  | inactive: -4.95%
42 | COc1ccc(C(=O)Nc2ccccc2)cc1NC(=O)c1ccc([N+](=O)[O-])cc1 | inconclusive [inhibitor, full curve, poor fit] | 

Row | SMILES | Potency | activity change, negative = inhibition
43 | N#CCCN1CCN(C(=S)c2ccc(-c3ccc(Cl)c(Cl)c3)o2)CC1 | inconclusive [inhibitor, partial curve, poor fit] | 
44 | N#Cc1nc(-c2cccs2)oc1N1CCN(Cc2ccccc2)CC1 |  | inactive: 9.08%
45 | O=C(CNc1cccc(S(=O)(=O)N2CCCCC2)c1)Nc1ccc(C(F)(F)F)cc1 | inconclusive [inhibitor, partial curve, poor fit] | 
46 | Cc1ccc2c(c1)CCCN2C(=O)CSc1ccccc1 | inconclusive [inhibitor, partial curve, poor fit] | 
47 | Cc1ccc(N2CCN(S(=O)(=O)c3nnc(NC(=O)c4cccc(F)c4)s3)CC2)cc1 | inconclusive [inhibitor, single point] | 
48 | NC(=O)C(c1ccccc1)C1CCCCC1 (configuration not stated) | inconclusive [inhibitor, partial curve] | 
49 | CCCCCCCCC(c1nc2ccccc2[nH]1)N1CCN=C(c2ccccc2)C1=O (configuration not stated) | inconclusive [inhibitor, single point] | 
50 | COc1cccc(NC(=O)C2CCN(Cc3cnn(-c4ccccc4)c3-n3cccc3)CC2)c1 | inconclusive [inhibitor, single point] | 
51 | COc1cc(/C=C/C(=O)NC(C)(C)C)ccc1OCc1ccccc1 | inconclusive [inhibitor, partial curve, poor fit] | 
52 | COc1ccc([C@@]2(O)c3c(ccc(CC=C(C)C)c3O)NC(=O)[C@@H]2OC)cc1 | inconclusive [inhibitor, partial curve, poor fit] | 
53 | CCCc1c(C(=O)N/N=C(\C)c2ccccn2)nnn1-c1nonc1N | inconclusive [inhibitor, full curve, poor fit] | 
54 | COc1ccc(/C=C2\SC(=O)N(CCCC(=O)Nc3cc(Cl)ccc3C(=O)O)C2=O)cc1 | inconclusive [inhibitor, partial curve] | 
55 | O=C(Nc1ccc(Cl)cc1)c1cccs1 | inconclusive [inhibitor, single point] | 
56 | CCc1ccc(C2=CC(c3cccc(OC)c3OC)n3c(nc4ccccc43)N2)cc1 (configuration not stated) | inconclusive [inhibitor, single point] | 
57 | O=C(O)c1ccc(N=Nc2c(O)[nH]c3ccc(Br)cc23)cc1 |  | inactive: 20%
58 | COc1ccc(OC)c(NC(=O)c2cc3n(n2)C(C(F)(F)F)CC(c2ccc4c(c2)OCO4)N3)c1 (configuration not stated) |  | inactive: 0%
59 | CCCCc1cc(=O)oc2cc(O)cc(O)c12 | inconclusive [inhibitor, partial curve, poor fit] | 
60 | Cc1ccc(-c2noc(CCC(=O)NC3CCN(Cc4ccccc4)CC3)n2)cc1 | inconclusive [inhibitor, single point] | 
61 | Cc1cc(C)nc(Sc2ccc([N+](=O)[O-])cc2[N+](=O)[O-])n1 | inconclusive [inhibitor, full curve, poor fit] | 
62 | S=c1[nH]nc(COc2ccc(Cl)cc2)n1Cc1ccco1 | inconclusive [inhibitor, partial curve, poor fit] | 
